In article PMC4336329 (PLoS ONE, 2015):
Among all 310,000 compounds or so, about 2,200 (0.71%) showed an effect of 50% or more. Effects have a minus sign here. The list shows a part of the results.

target: human ether-à-go-go-related gene (hERG) potassium channel (human, UniProt Q12809); assay: primary screen, population patch clamp on CHO cells stably expressing hERG
Sequence (Q12809 whole entry, looked up): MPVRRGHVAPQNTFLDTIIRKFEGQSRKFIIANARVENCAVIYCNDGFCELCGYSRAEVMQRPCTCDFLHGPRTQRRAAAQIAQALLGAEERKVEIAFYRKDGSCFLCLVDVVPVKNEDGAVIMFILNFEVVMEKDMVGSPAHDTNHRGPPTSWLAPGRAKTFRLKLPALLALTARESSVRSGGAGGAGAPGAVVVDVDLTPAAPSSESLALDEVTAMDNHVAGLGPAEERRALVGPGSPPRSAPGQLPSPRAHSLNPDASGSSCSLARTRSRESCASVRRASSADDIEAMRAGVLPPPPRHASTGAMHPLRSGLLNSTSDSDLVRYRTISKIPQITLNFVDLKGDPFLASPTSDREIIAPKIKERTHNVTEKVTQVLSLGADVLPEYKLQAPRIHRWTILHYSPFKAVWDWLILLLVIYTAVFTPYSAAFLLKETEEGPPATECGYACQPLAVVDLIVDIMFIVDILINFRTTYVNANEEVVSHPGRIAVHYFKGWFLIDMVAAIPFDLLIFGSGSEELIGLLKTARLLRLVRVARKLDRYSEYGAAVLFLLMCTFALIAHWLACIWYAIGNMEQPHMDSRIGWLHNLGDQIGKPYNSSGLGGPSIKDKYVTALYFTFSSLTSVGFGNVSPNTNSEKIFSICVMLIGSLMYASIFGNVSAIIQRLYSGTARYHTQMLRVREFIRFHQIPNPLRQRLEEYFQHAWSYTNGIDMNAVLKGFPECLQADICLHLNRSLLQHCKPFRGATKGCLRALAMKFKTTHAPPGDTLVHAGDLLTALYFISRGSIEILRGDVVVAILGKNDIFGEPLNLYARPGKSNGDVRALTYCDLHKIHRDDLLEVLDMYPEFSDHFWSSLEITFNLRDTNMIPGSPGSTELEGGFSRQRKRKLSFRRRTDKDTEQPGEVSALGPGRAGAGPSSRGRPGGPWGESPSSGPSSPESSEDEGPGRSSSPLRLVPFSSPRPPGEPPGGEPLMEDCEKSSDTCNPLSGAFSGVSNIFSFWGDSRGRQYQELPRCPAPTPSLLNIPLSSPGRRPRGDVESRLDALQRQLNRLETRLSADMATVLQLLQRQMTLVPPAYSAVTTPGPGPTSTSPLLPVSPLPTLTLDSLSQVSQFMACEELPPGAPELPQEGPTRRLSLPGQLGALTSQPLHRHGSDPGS

First: CCOc1ncccc1C(=O)Nc1cccc(Cl)c1Cl
Second: O=C(CSc1nnc(NC(=O)c2ccco2)s1)Nc1ccccc1Cl
The “hERG current change (%, negative = inhibition) at 1uM” value of the first is lower: 6.95% for the first, 18.4% for the second.

First: O=C(CSc1ccccc1)NCc1ccco1
Second: O=C(CSc1nnc(-c2ccncc2)s1)Nc1ccccc1
The “hERG current change (%, negative = inhibition) at 1uM” value of the first is lower: 2.28% for the first, 10.6% for the second.

Going from `CCn1nnc(NC(=O)c2ccc(C(C)(C)C)cc2)n1` to `O=C(Nn1cnnc1)c1ccc(Cl)c(Cl)c1`, the “hERG current change (%, negative = inhibition) at 1uM” value rises from 5.34% to 19.7%.

First: Cc1nnc(SCC(=O)NC2CCCCCC2)n1N
Second: O=C(CN1C(=O)c2ccc([N+](=O)[O-])cc2C1=O)NC1CCCCCC1
The “hERG current change (%, negative = inhibition) at 1uM” value of the first is lower: 8.19% for the first, 14.3% for the second.

Going from `Cc1ccc(NC(=O)N[C@H](C(=O)O)C(C)C)c(C)c1` to `CCOC(=O)/C(C#N)=C/Nc1ccccc1NS(=O)(=O)c1ccc(C)c(C)c1`, the “hERG current change (%, negative = inhibition) at 1uM” value rises from 5.35% to 10.5%.

Going from `Cc1nnc(NC(=O)CCCCCN2C(=O)C3C4C=CC(C4)C3C2=O)s1` (stereo not drawn) to `CCCCCC(=O)Nc1cccc(C2=NOC3(C2)C[C@@H](C(N)=O)N(C(=O)c2ccc(Cl)cc2)C3)c1` (stereo partly drawn), the “hERG current change (%, negative = inhibition) at 1uM” value rises from -4.44% to 7.05%.

Going from `Cc1ccccc1C(=O)NC1CCN(C(=O)NCc2ccccc2)CC1` to `C=C(CCC(=O)c1ccccc1)C(=O)c1ccccc1`, the “hERG current change (%, negative = inhibition) at 1uM” value rises from 6.97% to 17.5%.

Compared with `O=C1C2CCCN2C(c2cccc(F)c2)N1c1cccc(Cl)c1` (stereo not drawn), `O=C(Nc1cccc(F)c1)c1cc(S(=O)(=O)N2CCC(C(=O)O)CC2)ccc1F` is higher in “hERG current change (%, negative = inhibition) at 1uM” value: 0.302% for the first, 7.97% for the second.

Compared with `COc1cccc(-n2c(SCC(=O)N3c4ccccc4CC3C)nnc2-c2ccco2)c1` (stereo not drawn), `Cc1ccc(C(=O)N/C(=C\c2cccc([N+](=O)[O-])c2)C(=O)OCN2C(=O)c3ccccc3C2=O)cc1` is higher in “hERG current change (%, negative = inhibition) at 1uM” value: 4.2% for the first, 17% for the second.

First: COc1cc(CNCCCN2CCOCC2)c(Br)cc1OC(C)C.Cl
Second: CCNC(=S)N1CCN(CCNC2=CC(=O)CC(C)(C)C2)CC1
The “hERG current change (%, negative = inhibition) at 1uM” value of the first is higher: 14% for the first, 9.53% for the second.

First: Cc1cc(C(=O)COC(=O)c2ccc(O)cc2)c(C)n1CC1CCCO1 (stereo not drawn)
Second: CCOC(=O)c1ccc(-n2ncc(C(=O)OCC)c2N)cc1
The “hERG current change (%, negative = inhibition) at 1uM” value of the first is higher: 13.9% for the first, 4.94% for the second.

Going from `Cc1c(C(=O)NCc2ccc(S(N)(=O)=O)cc2)oc2ccc(Cl)cc12` to `Cc1cccc(Nc2sc(C(=O)c3cc4cc(Cl)ccc4o3)c(N)c2C#N)c1`, the “hERG current change (%, negative = inhibition) at 1uM” value falls from 10.4% to 2.48%.

First: COc1ccc(/C(N)=N/O)c(OC)c1
Second: COc1ccc2c(c1)CC/C(=C\c1ccc(OC)c(Cn3nc(C)cc3C)c1)C2=O
The “hERG current change (%, negative = inhibition) at 1uM” value of the first is higher: 8.27% for the first, 7.34% for the second.

First: CCc1cc2c(cc3c(=O)n(CC(=O)N4CCN(c5ccccn5)CC4)nc(CC)n32)s1
Second: CC(C)CCn1nnnc1C(c1ccccc1)N1CCC(C(N)=O)CC1 (stereo not drawn)
The “hERG current change (%, negative = inhibition) at 1uM” value of the first is lower: 4.88% for the first, 10.9% for the second.

Compared with `O=C(Nc1ccc(S(=O)(=O)N2CCOCC2)cc1)c1ccc(S(=O)(=O)N2CCOCC2)cc1`, `CCS(=O)(=O)N1Cc2ccccc2CC1C(=O)Nc1ccc(F)cc1` (stereo not drawn) is lower in “hERG current change (%, negative = inhibition) at 1uM” value: 14.1% for the first, 3.71% for the second.

Compared with `CC1CCc2c(sc(NC(=O)CCc3nc4ccccc4c(=O)[nH]3)c2C#N)C1` (stereo not drawn), `O=C(CCc1nc2ccccc2[nH]1)N1CCc2ccccc2C1` is lower in “hERG current change (%, negative = inhibition) at 1uM” value: 7.39% for the first, -3.88% for the second.

First: CC(C)N1CCC(N2CCN(C3CCCCC3)CC2CCO)CC1 (stereo not drawn)
Second: Br.Clc1ccc2nc(CN3CCCCC3)cn2c1
The “hERG current change (%, negative = inhibition) at 1uM” value of the first is higher: 16% for the first, -8.79% for the second.

First: N#CCc1c(C#N)c(N)nc(N2CCOCC2)c1C#N
Second: Nc1ccc(Nc2nc3ccccc3[nH]2)cc1
The “hERG current change (%, negative = inhibition) at 1uM” value of the first is lower: 3.29% for the first, 10.3% for the second.

First: CCOc1ccc(N(Cc2cc3cc(OC)ccc3[nH]c2=O)S(C)(=O)=O)cc1
Second: Cc1cccc(OCCNC(=O)c2ccc(Oc3ccc(C(F)(F)F)cc3[N+](=O)[O-])cc2)c1
The “hERG current change (%, negative = inhibition) at 1uM” value of the first is lower: 13.4% for the first, 16.3% for the second.

Compared with `CCC(C)(C)NC(=O)CN(C(=O)CCC(=O)Nc1nccs1)c1ccc2c(c1)OCCO2`, `NC(=O)CC(NC(=O)Cc1cccc2ccccc12)c1ccc(NCc2cc(F)ccc2F)c([N+](=O)[O-])c1` (stereo not drawn) is lower in “hERG current change (%, negative = inhibition) at 1uM” value: 12.4% for the first, 11.5% for the second.

First: COc1ccc(N2Cc3ccccc3C2)cc1Cl
Second: O=C1c2ccccc2C(=O)C1c1ccccc1
The “hERG current change (%, negative = inhibition) at 1uM” value of the first is lower: -11.6% for the first, 6.99% for the second.

First: CSc1cccc(NC(=O)Cn2cccc2)c1
Second: O=C(Sc1ccc(Cl)cc1)c1ccccn1
The “hERG current change (%, negative = inhibition) at 1uM” value of the first is lower: 5.55% for the first, 16.3% for the second.

For `O=c1cnnc(Nc2ccccc2F)[nH]1`, the “hERG current change (%, negative = inhibition) at 1uM” value was 13%.
